{"source": "ChEMBL document CHEMBL4888484", "about": "“Replenishing the malaria drug discovery pipeline: Screening and hit evaluation of the MMV Hit Generation Library 1 (HGL1) against asexual blood stage Plasmodium falciparum ,using a nano luciferase reporter read-out” (2022)", "note": "Screen size: about 150,000 compounds; about 540 (0.36%) showed an effect of 50% or more. This is one part of the list.", "data": [{"tested_on": "Plasmodium falciparum", "assay": "Primary screen in NF54 nanoGlo assay, in single point, at 2uM, 72h; a lower Z score goes with more inhibition", "assay_type": "functional, Erythrocyte", "settings": "timepoint 72 hour", "units": {"% Inhibition": "%"}, "values": [{"smiles": "CN(Cc1cn2ccccc2n1)c1ccn(C)n1", "% Inhibition": -1, "Z score": 0.14}, {"smiles": "COc1nc(NC(C)=O)nc(C)c1Cl", "% Inhibition": 32, "Z score": -3.67}, {"smiles": "Cc1ncc2n1CC[C@H](C(=O)Nc1cnn(C3CCCC3)c1)C2", "% Inhibition": -13, "Z score": 1.69}, {"smiles": "Fc1ccc(C2CC(c3ccc4c(c3)OCO4)Nc3ncnn32)cc1", "note": "(configuration not stated)", "% Inhibition": 34, "Z score": -3.82}, {"smiles": "CCCCN(C)CC1CCN(C(=O)Nc2nnc(C)s2)CC1", "% Inhibition": 13, "Z score": -1.06}, {"smiles": "COCCN1C(=O)Cc2ccccc2[C@@H]1C(=O)N1CCN(c2ccccc2F)CC1", "% Inhibition": 3, "Z score": -0.45}, {"smiles": "O=C(CCn1nnc2ccccc2c1=O)N1CCCC[C@H]1c1nc2ccccc2o1", "% Inhibition": -23, "Z score": 3.06}, {"smiles": "Cc1ccc2c(c1)CCCN2C(=O)c1cn2ccccc2n1", "% Inhibition": -6, "Z score": 0.84}, {"smiles": "COc1ccc2cc(-c3nc(CCN(C)C(=O)c4ccoc4)no3)[nH]c2c1", "% Inhibition": -3, "Z score": 0.57}, {"smiles": "O=C1CCc2cc(S(=O)(=O)N3C[C@@H]4CC[C@H]3CN(Cc3ccccc3)C4)ccc2N1", "% Inhibition": -15, "Z score": 1.97}, {"smiles": "CC(C)NC(=O)N(CCc1cccs1)C1CCOCC1", "% Inhibition": -7, "Z score": 1.07}, {"smiles": "COc1nc(-c2cccc(C(=O)N3C[C@@H]4CC[C@H](C3)C(=O)N4)c2)ncc1F", "% Inhibition": 68, "Z score": -12.2}, {"smiles": "Cc1cc(CNC(=O)[C@@H]2CCCCc3nn(Cc4cccc(F)c4)c(=O)n32)n(C)n1", "% Inhibition": -2, "Z score": 0.2}, {"smiles": "COc1nc2c(cc1CNC(=O)c1ccoc1C)C(=O)N(C1CCCC1)C2", "% Inhibition": -12, "Z score": 1.51}, {"smiles": "CCn1c(CN2CCC[C@H](C(F)(F)F)C2)nc2cc(S(=O)(=O)N3CCCCC3)ccc21", "% Inhibition": -12, "Z score": 1.53}, {"smiles": "O=C(Nc1ccc(N2CCOCC2)nc1)c1cccnc1", "% Inhibition": -12, "Z score": 1.3}, {"smiles": "COc1ccc(CNC(=O)[C@H]2C[C@@H](C(=O)Nc3ccc(F)cc3)CN(Cc3ccc4ccccc4c3)C2)cc1OC", "% Inhibition": -10, "Z score": 1.19}, {"smiles": "COc1cnc(NC(=O)N2CCCS(=O)(=O)C[C@H]2C2CC2)s1", "% Inhibition": 3, "Z score": -0.59}, {"smiles": "COc1cc(CN2CCN(CC#Cc3ccccc3)C[C@@H]2CCO)cc(OC)c1", "% Inhibition": -6, "Z score": 1.14}, {"smiles": "Cc1ccc2nc3c(cc2c1)CCN3S(=O)(=O)c1ccc(F)cc1", "% Inhibition": 4, "Z score": -0.41}, {"smiles": "CCC[C@H]1CN(C(=O)c2cccc(-c3ccco3)c2)C[C@@H]1N", "% Inhibition": -16, "Z score": 1.92}, {"smiles": "NC(=O)c1cccc(-c2noc([C@H]3CNCC34CCCCC4)n2)c1", "% Inhibition": -11, "Z score": 1.65}, {"smiles": "Cc1cc2n(n1)CCN(C(=O)N[C@H](c1cccs1)C1CCCCC1)C2", "% Inhibition": -16, "Z score": 2.07}, {"smiles": "CCC(=O)[C@@H]1CCCCN1C(=O)c1c[nH]c(C#N)c1", "% Inhibition": -6, "Z score": 0.86}, {"smiles": "CCN(C)c1ccccc1NC(=O)c1c[nH]nn1", "% Inhibition": -8, "Z score": 1.18}, {"smiles": "O=C(N[C@@H]1c2ccccc2OC[C@@H]1CO)[C@H](O)c1ccccc1", "% Inhibition": -2, "Z score": 0.41}, {"smiles": "CC(C)C[C@H](NC(=O)c1ccc(Cl)cc1Cl)C(=O)N1CCN(Cc2ccc3c(c2)OCO3)CC1", "% Inhibition": -5, "Z score": 1.07}, {"smiles": "Cc1ccc(OCc2c(C(=O)N3CCc4ccccc4C3)c(=O)cc(C)n2Cc2ccccn2)cc1", "% Inhibition": -16, "Z score": 3.02}, {"smiles": "Cc1noc(CCNC(=O)C[C@@H]2N=C(O)N(c3cccc4ccccc34)C2=O)n1", "% Inhibition": 6, "Z score": -0.72}, {"smiles": "COC(=O)[C@@H]1CN(C(=O)c2ccc(OC)c(S(=O)(=O)N3CCCCCC3)c2)C[C@H]1C", "% Inhibition": 4, "Z score": -0.4}, {"smiles": "CN=C(NCc1ccc(Cl)cc1)NC1CC1", "% Inhibition": -12, "Z score": 1.48}, {"smiles": "Cc1nc2n(c1C(=O)N(C)C)CCN(C(=O)[C@@H]1COc3ccccc3C1)C2", "% Inhibition": -18, "Z score": 2.35}, {"smiles": "CC[C@H](C)Oc1cc(-c2nc(COC)no2)ccn1", "% Inhibition": -3, "Z score": 0.57}, {"smiles": "Cc1cc(Cl)ccc1OCC(=O)NC(C)(C)CO", "% Inhibition": 8, "Z score": -1.58}, {"smiles": "Cc1ccc(-c2nc(C#N)c(S(=O)(=O)Cc3ccc(Cl)cc3)o2)cc1", "% Inhibition": 5, "Z score": -0.73}, {"smiles": "COc1ccc(NC(=O)Cn2c(C)cc3nc4n(c(=O)c32)CCCC4)cc1", "% Inhibition": -11, "Z score": 1.22}, {"smiles": "Cc1cc(N(C)C)cc(C)c1CC(=O)NCCc1cncn1C", "% Inhibition": -7, "Z score": 1.09}, {"smiles": "O=C1NC(=O)[C@@H]2CN(S(=O)(=O)c3ccc(C4CC4)cc3)C[C@H]12", "% Inhibition": 1, "Z score": -0.15}, {"smiles": "C[C@H](O)CN(C(=O)Nc1cccnc1)C1CCCCC1", "% Inhibition": 13, "Z score": -1.7}, {"smiles": "Cc1nc(-c2ccc(N3CCCC3)nc2)sc1C(=O)O", "% Inhibition": 0, "Z score": -0.04}, {"smiles": "O=C(NCc1noc(Cc2cccs2)n1)[C@H]1CCC[C@H](O)C1", "% Inhibition": -6, "Z score": 0.72}]}]}
